# Laboratory results published in PubChem BioAssay (NCATS).
# Several values for one entry are separate records, joined by “and”; a condition that tells them apart may be missing. Identical values can stand only once. This list was built around the results that the source calls inconclusive (neither active nor inactive); the mix of calls is not that of the screen. For part of these data: Potencies beside an inconclusive call are fits to weak or partial responses and may not hold up. Activity calls are given as the source filed them. The call rests on the fitted dose curve; in most records, active means well fitted curve in the direction sought with a large enough effect; inconclusive means small, poorly fitted or top-dose-only effect, or another doubt; inactive means no such curve, though single readings can be large; an effect the other way counts as inactive or inconclusive.
# What was measured:
# [1] = Cellular viability qHTS for adrenocortical cancer (ACC) cell line SW-13 (AID 1963989); settings: SW-13 ACC cells viability, CellTiter-Glo, 48 h; activity (max response): stronger effect = lower value; further: nearly all actives have a fitted effect of over 65% in size;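 on activity (max response): cells grown in serum-free medium with ITS supplement; on the % scale 0 is the no-effect control and ±100 the full control effect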
# Outline: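 SW-13 cells in ITS-supplemented serum-free DMEM were plated overnight, then exposed for 48 h at 37C to compound titrations (up to 46 uM final). Viability was read by CellTiter-Glo luminescence; four-parameter logistic fits gave IC50 and efficacy.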
# [2] = Quantitative highthroughput screen to assess conditional lethalithy of P12 Ichikawa cells grown in RPMI1640 with untreated serum (RPMI+s) (AID 1963881); settings: ATP luminescence, 48 h; Potency: viability; series mostly up to 45.8 µM; further: nearly all actives have a fitted effect of over 35% in size;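 on viability: 100% = DMSO wells and 0% = empty wells without cells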
# Outline: (§1)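 Each medium arm—HPLM with 10% dialyzed FBS, or RPMI1640 with 5 mM glucose and 10% untreated or dialyzed FBS—was screened against an 11-point, 3-fold compound titration for 48 h at 37 °C, with CellTiter-Glo luminescence as endpoint.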
# [3] = Quantitative highthroughput screen to assess conditional lethalithy of SEM cells grown in RPMI1640 with dialyzed fetal bovine serum (RPMI+ds) (AID 1963884); settings: SEM B-ALL cells, RPMI+dialyzed FBS, CellTiter-Glo viability, 48 h; viability: at 45.8 µM (top of the series); further: nearly all actives have a fitted effect of over 35% in size;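 on viability: 100% = DMSO control wells and 0% = empty wells without cells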
# Outline: as §1
# [4] = Quantitative highthroughput screen to assess conditional lethalithy of SEM cells grown in Human Plasma-Like Medium with dialyzed fetal bovine serum (HPLM+ds) (AID 1963882); settings: SEM B-ALL cells in HPLM+ds, CellTiter-Glo viability, 48 h; series mostly up to 45.8 µM; further: nearly all actives have a fitted effect of over 35% in size
# Outline: as §1
# [5] = Cellular viability qHTS for adrenocortical cancer (ACC) cell line NCI-H295R (AID 1963990); settings: CellTiter-Glo ATP luminescence, 48 h; activity change, negative = viability loss: at 46.1 µM (top of the series); further: nearly all actives have a fitted effect of over 60% in size
# Outline: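 Luminescent ATP read-out (CellTiter-Glo, 20 min RT) after 48 h drug exposure of NCI-H295R cells; a titration up to 46 uM final. Data normalized to doxorubicin (100% inhibition) and DMSO (0%); 4-parameter fit gives IC50, max response.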
# [6] = Quantitative highthroughput screen to assess conditional lethalithy of SEM cells grown in RPMI1640 with unreated serum (RPMI+s) (AID 1963883); settings: SEM B-ALL cells, CellTiter-Glo viability, 48 h; viability: at 45.8 µM (top of the series); further: nearly all actives have a fitted effect of over 35% in size;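 on viability: 100% = DMSO wells and 0% = empty wells without cells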
# Outline: as §1
# Potency means the concentration at half of the fitted maximal effect; tags describe the fitted curve by direction and shape.
compound,measurement,setting,value
C[C@H]1COCCN1c1cc(C2(S(=O)(=O)C3CC3)CC2)nc(-c2ccc(NC(=S)NCCO)cc2)n1,Potency,[1],active: 0.316 µM
COc1cc(C=CC(=O)CC(=O)C=Cc2ccc(O)c(OC)c2)ccc1O,Potency,[2],active: 34 µM
same,Potency,[3],active: 21.5 µM
CCn1c(-c2nonc2N)nc2cncc(CNC3CCNCC3)c21,Potency,[4],"inconclusive: 13.2 µM [cytotoxic, partial curve]"
same,Potency,[5],"inconclusive: 12.6 µM [cytotoxic, partial curve]"
CC(=O)c1cc2c(o1)C(=O)c1ccccc1C2=O,Potency,[1],active: 3.16 µM
Cc1c(O)cccc1C(=O)N[C@@H](CSc1ccccc1)[C@H](O)CN1C[C@H]2CCCC[C@@H]2C[C@@H]1C(=O)NC(C)(C)C,Potency,[2],inactive
same,Potency,[3],inactive
Cc1ncc(-c2ccnc(Nc3ccc(S(C)(=O)=O)cc3)n2)n1C(C)C,Potency,[6],active: 3.32 µM
same,Potency,[3],active: 5.26 µM
same,Potency,[1],active: 8.91 µM
CCC(=C(CC)c1ccc(O)cc1)c1ccc(O)cc1,Potency,[6],inactive
same,Potency,[3],"inconclusive: 0.469 µM [cytotoxic, full curve, poor fit]"
COc1ccc2cc([S+]([O-])Cc3ncc(C)c(OC)c3C)nc2c1,Potency,[2],inactive
same,Potency,[4],"inconclusive: 5.9 µM [cytotoxic, full curve, poor fit]"
same,Potency,[6],inactive
COc1cc(OC)c(/C=C/S(=O)(=O)Cc2ccc(OC)c(NCC(=O)O)c2)c(OC)c1,Potency,[1],active: 0.02 µM
Cc1[nH]c(/C=C2\C(=O)Nc3ccc(S(=O)(=O)Cc4c(Cl)cccc4Cl)cc32)c(C)c1C(=O)N1CCC[C@@H]1CN1CCCC1,Potency,[1],"inconclusive: 28.2 µM [cytotoxic, single point]"
NC(=O)c1ncn([C@@H]2O[C@H](CO)[C@@H](O)[C@@H]2O)c1N,Potency,[4],active: 18.7 µM
same,Potency,[6],"inconclusive: 26.4 µM [cytotoxic, single point]"
same,Potency,[3],"inconclusive: 33.2 µM [cytotoxic, single point]"
C[C@@H](OC[C@@]1(c2ccccc2)CC[C@]2(CCC(=O)N2)CN1)c1cc(C(F)(F)F)cc(C(F)(F)F)c1,Potency,[1],active: 25.1 µM
CCn1c(=O)c(-c2ccn[nH]2)cc2c(C)nc(N)nc21,Potency,[1],"inconclusive: 8.91 µM [cytotoxic, partial curve]"
O=C(C=CC=Cc1ccc2c(c1)OCO2)N1CCCCC1,Potency,[2],inactive
same,Potency,[6],"inconclusive: 16.6 µM [cytotoxic, partial curve, poor fit]"
same,Potency,[3],inactive
CC(C)(C#N)c1cc(Cn2cncn2)cc(C(C)(C)C#N)c1,Potency,[4],inactive
same,Potency,[5],"inconclusive: 29.1 µM [cytotoxic, single point]"
C[C@H]1[C@H](NC(=O)C(=NOC(C)(C)C(=O)O)c2csc(N)n2)C(=O)N1S(=O)(=O)O,Potency,[6],inactive
same,Potency,[3],"inconclusive: 8.33 µM [cytotoxic, single point]"
Cc1nnn(C)c1-c1cnc2c3ccc(C(C)(C)O)cc3n([C@H](c3ccccc3)C3CCOCC3)c2c1,Potency,[1],"inconclusive: 10 µM [cytotoxic, partial curve]"
C[N+]1(C)[C@@H]2C[C@@H](OC(=O)C(O)(c3cccs3)c3cccs3)C[C@H]1[C@@H]1O[C@@H]12,Potency,[6],inactive
same,Potency,[3],inactive
COc1cc(Nc2ncc(F)c(Nc3ccc4c(n3)N(COP(=O)(O)O)C(=O)C(C)(C)O4)n2)cc(OC)c1OC,Potency,[2],inactive
same,Potency,[4],"inconclusive: 0.0833 µM [cytotoxic, full curve]"
same,Potency,[6],"inconclusive: 0.0743 µM [cytotoxic, full curve]"
same,Potency,[3],"inconclusive: 0.0743 µM [cytotoxic, full curve]"
same,Potency,[1],active: 14.1 µM
C=CC(=O)N1CC/C(=C\c2ccc(F)c([N+](=O)[O-])c2)C(=O)/C(=C/c2ccc(F)c([N+](=O)[O-])c2)C1,Potency,[1],active: 0.794 µM
COc1ccccc1C(=O)Nc1cc2c(cc1N1CCNC[C@H]1C)n(C)c(=O)n2C,Potency,[1],"inconclusive: 28.2 µM [cytotoxic, partial curve, poor fit]"
OC[C@H]1O[C@@H](Oc2ccc(O)cc2)[C@H](O)[C@@H](O)[C@H]1O,Potency,[2],inactive
same,Potency,[3],inactive
COC(=O)N[C@H](C(=O)N1CCC[C@@H]1c1ncc(-c2ccc(-c3ccc(-c4cnc([C@@H]5CCCN5C(=O)[C@@H](NC(=O)OC)C(C)C)[nH]4)cc3)cc2)[nH]1)C(C)C,Potency,[2],inactive
same,Potency,[6],"inconclusive: 26.4 µM [cytotoxic, single point]"
same,Potency,[3],"inconclusive: 0.0015 µM [rising, full curve, poor fit]"
CCOc1cc2ncc(C#N)c(Nc3ccc(OCc4ccccn4)c(Cl)c3)c2cc1NC(=O)/C=C/CN(C)C,Potency,[1],"inconclusive: 0.126 µM [cytotoxic, full curve]"
C[C@H](CCC(=O)O)[C@H]1CC[C@H]2[C@H]3[C@@H](CC[C@]12C)[C@@]1(C)CC[C@@H](O)C[C@H]1C[C@@H]3O,Potency,[4],inactive
same,Potency,[3],"inconclusive: 10.5 µM [cytotoxic, partial curve, poor fit]"
CC1(C)S[C@H]2[C@H](NC(=O)[C@@H](N)c3ccc(O)cc3)C(=O)N2[C@H]1C(=O)O,activity (max response),[1],inactive: 7.49%
COc1ccc(CN2CCN(C(c3ccc(F)cc3)c3ccc(F)cc3)CC2)c(OC)c1OC,Potency,[1],"inconclusive: 23.1 µM [cytotoxic, single point]"
same,Potency,[5],"inconclusive: 29.1 µM [cytotoxic, single point]"
C[C@@H]1C[C@H](N)C[C@H](c2ccncc2NC(=O)c2ccc(F)c(-c3c(F)cccc3F)n2)C1,Potency,[1],"inconclusive: 31.6 µM [cytotoxic, single point]"
same,Potency,[5],active: 28.2 µM
Cc1cccc(C)c1NC(=O)CN1CCN(CCCC(c2ccc(F)cc2)c2ccc(F)cc2)CC1,activity (max response),[1],inactive: -13.9%
same,Potency,[5],"inconclusive: 3.66 µM [cytotoxic, partial curve]"
CC(C)(C(=O)c1cccnc1)c1cccnc1,Potency,[1],"inconclusive: 20.6 µM [cytotoxic, single point]"
same,Potency,[5],"inconclusive: 29.1 µM [cytotoxic, single point]"
CCCCCCCCCCCCCCCC[N+](C)(C)CC,Potency,[1],active: 5.17 µM
same,Potency,[5],active: 7.31 µM
CC[C@@H]([C@H](C)O)n1ncn(-c2ccc(N3CCN(c4ccc(OC[C@@H]5CO[C@@](Cn6cncn6)(c6ccc(F)cc6F)C5)cc4)CC3)cc2)c1=O,Potency,[1],"inconclusive: 5.17 µM [cytotoxic, partial curve]"
same,Potency,[5],"inconclusive: 7.31 µM [cytotoxic, partial curve]"
CC1=C(C)C(=O)C(CCCCC#CCCCC#CCO)=C(C)C1=O,Potency,[1],"inconclusive: 18.4 µM [cytotoxic, single point]"
same,Potency,[5],"inconclusive: 20.6 µM [cytotoxic, single point]"
CC(=O)NCC(=O)N1[C@@H]2CC[C@H]1c1ccc(Nc3ncc(C(F)(F)F)c(NC4CCC4)n3)cc12,Potency,[1],"inconclusive: 35.5 µM [cytotoxic, single point]"
same,Potency,[5],active: 4.47 µM
CCN(CC)CCCC(C)Nc1c2ccc(Cl)cc2nc2ccc(OC)cc12 (stereo not given),Potency,[1],active: 28.2 µM
same,Potency,[5],active: 14.1 µM
CN(C/C=C/C#CC(C)(C)C)Cc1cccc2ccccc12,Potency,[1],"inconclusive: 25.9 µM [cytotoxic, single point]"
same,Potency,[5],"inconclusive: 29.1 µM [cytotoxic, single point]"
Cc1c(-c2ccc(O)cc2)n(Cc2ccc(OCCN3CCCCCC3)cc2)c2ccc(O)cc12,Potency,[1],"inconclusive: 29.1 µM [cytotoxic, single point] and inconclusive: 28.2 µM [cytotoxic, single point]"
same,Potency,[5],"inconclusive: 18.4 µM [cytotoxic, single point] and inconclusive: 35.5 µM [cytotoxic, single point]"
C[C@@H]1CN(CCCn2c3ccccc3c3ccccc32)C[C@H](C)N1,Potency,[1],"inconclusive: 18.4 µM [cytotoxic, single point]"
same,Potency,[5],"inconclusive: 29.1 µM [cytotoxic, single point]"
Cc1ccc(Nc2cc(N[C@@H]3CCCC[C@@H]3N)nnc2C(N)=O)nc1C,activity (max response),[1],inactive: -5.27%
same,Potency,[5],"inconclusive: 31.6 µM [rising, single point]"
